Substitutions are numbered along the chain they refer to; changes in the protein carry UniProt numbers. The list shows a part of the results.
T1: RBFOX1 RRM (Homo sapiens, UniProt Q9NWB1 109-208)
T1 sequence: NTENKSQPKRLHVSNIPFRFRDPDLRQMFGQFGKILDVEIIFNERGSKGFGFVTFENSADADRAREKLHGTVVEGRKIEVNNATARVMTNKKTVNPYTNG

B1: UCUUCAA (DNA:RNA)
RNA: GGGAGACCGGAAUUCAGAUUGUCCUCUUCAAUUAAAUCCCGUCGUAGCCACCA
DNA 1: CAATCTGAATTCCGGTCTCCC
DNA 2: TGGTGGCTACGACGGGATT
B2: UGCUUGC (DNA:RNA)
RNA: B1 RNA with C26G, U27C, C29U, A30G, A31C
DNA 1: CAATCTGAATTCCGGTCTCCC
DNA 2: TGGTGGCTACGACGGGATT
B3: AGCUUUU (DNA:RNA)
RNA: B1 RNA with U25A, C26G, U27C, C29U, A30U, A31U
DNA 1: CAATCTGAATTCCGGTCTCCC
DNA 2: TGGTGGCTACGACGGGATT
B4: GGGGCCG (DNA:RNA)
RNA: B1 RNA with U25G, C26G, U27G, U28G, A30C, A31G
DNA 1: CAATCTGAATTCCGGTCTCCC
DNA 2: TGGTGGCTACGACGGGATT
B5: GGCCUUC (DNA:RNA)
RNA: GGGAGACCGGAAUUCAGAUUGUCCGGCCUUCUUAAAUCCCGUCGUAGCCACCA
DNA 1: CAATCTGAATTCCGGTCTCCC
DNA 2: TGGTGGCTACGACGGGATT
B6: CUGAGGC (DNA:RNA)
RNA: B5 RNA with G25C, G26U, C27G, C28A, U29G, U30G
DNA 1: CAATCTGAATTCCGGTCTCCC
DNA 2: TGGTGGCTACGACGGGATT
B7: CGAAGUC (DNA:RNA)
RNA: B5 RNA with G25C, C27A, C28A, U29G
DNA 1: CAATCTGAATTCCGGTCTCCC
DNA 2: TGGTGGCTACGACGGGATT
B8: AUUUGGA (DNA:RNA)
RNA: B1 RNA with U25A, C26U, C29G, A30G
DNA 1: CAATCTGAATTCCGGTCTCCC
DNA 2: TGGTGGCTACGACGGGATT
B9: UAGUCAU (DNA:RNA)
RNA: B1 RNA with C26A, U27G, A31U
DNA 1: CAATCTGAATTCCGGTCTCCC
DNA 2: TGGTGGCTACGACGGGATT
B10: CAUUGAC (DNA:RNA)
RNA: B1 RNA with U25C, C26A, C29G, A31C
DNA 1: CAATCTGAATTCCGGTCTCCC
DNA 2: TGGTGGCTACGACGGGATT
B11: UGUCAUA (DNA:RNA)
RNA: B5 RNA with G25U, C27U, U29A, C31A
DNA 1: CAATCTGAATTCCGGTCTCCC
DNA 2: TGGTGGCTACGACGGGATT
B12: ACACGGU (DNA:RNA)
RNA: B5 RNA with G25A, G26C, C27A, U29G, U30G, C31U
DNA 1: CAATCTGAATTCCGGTCTCCC
DNA 2: TGGTGGCTACGACGGGATT
B13: UGUGGUC (DNA:RNA)
RNA: B5 RNA with G25U, C27U, C28G, U29G
DNA 1: CAATCTGAATTCCGGTCTCCC
DNA 2: TGGTGGCTACGACGGGATT
B14: UAUUGGU (DNA:RNA)
RNA: B1 RNA with C26A, C29G, A30G, A31U
DNA 1: CAATCTGAATTCCGGTCTCCC
DNA 2: TGGTGGCTACGACGGGATT
B15: GAGACCC (DNA:RNA)
RNA: B5 RNA with G26A, C27G, C28A, U29C, U30C
DNA 1: CAATCTGAATTCCGGTCTCCC
DNA 2: TGGTGGCTACGACGGGATT
B16: AAAAAUG (DNA:RNA)
RNA: B5 RNA with G25A, G26A, C27A, C28A, U29A, C31G
DNA 1: CAATCTGAATTCCGGTCTCCC
DNA 2: TGGTGGCTACGACGGGATT
B17: GGCUGAA (DNA:RNA)
RNA: B5 RNA with C28U, U29G, U30A, C31A
DNA 1: CAATCTGAATTCCGGTCTCCC
DNA 2: TGGTGGCTACGACGGGATT
B18: ACAUCUC (DNA:RNA)
RNA: B1 RNA with U25A, U27A, A30U, A31C
DNA 1: CAATCTGAATTCCGGTCTCCC
DNA 2: TGGTGGCTACGACGGGATT
B19: CAAUACC (DNA:RNA)
RNA: B5 RNA with G25C, G26A, C27A, C28U, U29A, U30C
DNA 1: CAATCTGAATTCCGGTCTCCC
DNA 2: TGGTGGCTACGACGGGATT
B20: UGAGUGU (DNA:RNA)
RNA: B5 RNA with G25U, C27A, C28G, U30G, C31U
DNA 1: CAATCTGAATTCCGGTCTCCC
DNA 2: TGGTGGCTACGACGGGATT

Target: T1, RBFOX1 RRM
Assay: EMSA; HiTS-Eq, 1 nM pool, 10 min; buffer printed only for the single-RNA assays: 10 mM Tris pH 7.5, 150 mM NaCl, 3.4 mM EDTA, 0.001% NP-40, 30 C
Details: tags: His6 N-terminal (pET28a); label: 5' 32P
Summary of the method: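 A pool of RNA with 7 randomized nucleotides, 5′-radiolabelled and with DNA-annealed flanks, was equilibrated at 1 nM for 10 min in 50 µL with purified RbFox RRM, wild type or mutant, across increasing protein concentrations. Free RNA was separated by 8% native PAGE, excised, reverse-transcribed, barcoded by PCR and sequenced. Relative association constants were obtained from read-count changes of each RNA species versus the control reaction and normalised to the cognate motif.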

| Binder | binding signal |
| --- | --- |
| B1 | 0.00525 KA relative to UGCAUGU |
| B2 | 0.088 KA relative to UGCAUGU |
| B3 | 0.0103 KA relative to UGCAUGU |
| B4 | 0.027 KA relative to UGCAUGU |
| B5 | 0.00592 KA relative to UGCAUGU |
| B6 | 0.0163 KA relative to UGCAUGU |
| B7 | 0.0108 KA relative to UGCAUGU |
| B8 | 0.00248 KA relative to UGCAUGU |
| B9 | 0.00945 KA relative to UGCAUGU |
| B10 | 0.00465 KA relative to UGCAUGU |
| B11 | 0.00564 KA relative to UGCAUGU |
| B12 | 0.00589 KA relative to UGCAUGU |
| B13 | 0.025 KA relative to UGCAUGU |
| B14 | 0.0172 KA relative to UGCAUGU |
| B15 | 0.00378 KA relative to UGCAUGU |
| B16 | 0.000279 KA relative to UGCAUGU |
| B17 | 0.0275 KA relative to UGCAUGU |
| B18 | 0.00219 KA relative to UGCAUGU |
| B19 | 0.0011 KA relative to UGCAUGU |
| B20 | 0.0253 KA relative to UGCAUGU |

Reference: publication PMC9911399, “Two distinct binding modes provide the RNA-binding protein RbFox with extraordinary sequence specificity”
